In paper PMC4336329 (PLoS ONE, 2015):
Screen size: about 310,000 compounds; about 14,000 (4.5%) showed an effect of 50% or more. The effect is printed as a negative number. This is one part of the list.

target: human ether-à-go-go-related gene (hERG) potassium channel (human, UniProt Q12809); test: primary screen, population patch clamp on CHO cells stably expressing hERG
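Note: peak tail current of the secondary pulse compared with the same well before compound.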

Sequence of human ether-à-go-go-related gene (hERG) potassium channel (Q12809 whole entry, looked up): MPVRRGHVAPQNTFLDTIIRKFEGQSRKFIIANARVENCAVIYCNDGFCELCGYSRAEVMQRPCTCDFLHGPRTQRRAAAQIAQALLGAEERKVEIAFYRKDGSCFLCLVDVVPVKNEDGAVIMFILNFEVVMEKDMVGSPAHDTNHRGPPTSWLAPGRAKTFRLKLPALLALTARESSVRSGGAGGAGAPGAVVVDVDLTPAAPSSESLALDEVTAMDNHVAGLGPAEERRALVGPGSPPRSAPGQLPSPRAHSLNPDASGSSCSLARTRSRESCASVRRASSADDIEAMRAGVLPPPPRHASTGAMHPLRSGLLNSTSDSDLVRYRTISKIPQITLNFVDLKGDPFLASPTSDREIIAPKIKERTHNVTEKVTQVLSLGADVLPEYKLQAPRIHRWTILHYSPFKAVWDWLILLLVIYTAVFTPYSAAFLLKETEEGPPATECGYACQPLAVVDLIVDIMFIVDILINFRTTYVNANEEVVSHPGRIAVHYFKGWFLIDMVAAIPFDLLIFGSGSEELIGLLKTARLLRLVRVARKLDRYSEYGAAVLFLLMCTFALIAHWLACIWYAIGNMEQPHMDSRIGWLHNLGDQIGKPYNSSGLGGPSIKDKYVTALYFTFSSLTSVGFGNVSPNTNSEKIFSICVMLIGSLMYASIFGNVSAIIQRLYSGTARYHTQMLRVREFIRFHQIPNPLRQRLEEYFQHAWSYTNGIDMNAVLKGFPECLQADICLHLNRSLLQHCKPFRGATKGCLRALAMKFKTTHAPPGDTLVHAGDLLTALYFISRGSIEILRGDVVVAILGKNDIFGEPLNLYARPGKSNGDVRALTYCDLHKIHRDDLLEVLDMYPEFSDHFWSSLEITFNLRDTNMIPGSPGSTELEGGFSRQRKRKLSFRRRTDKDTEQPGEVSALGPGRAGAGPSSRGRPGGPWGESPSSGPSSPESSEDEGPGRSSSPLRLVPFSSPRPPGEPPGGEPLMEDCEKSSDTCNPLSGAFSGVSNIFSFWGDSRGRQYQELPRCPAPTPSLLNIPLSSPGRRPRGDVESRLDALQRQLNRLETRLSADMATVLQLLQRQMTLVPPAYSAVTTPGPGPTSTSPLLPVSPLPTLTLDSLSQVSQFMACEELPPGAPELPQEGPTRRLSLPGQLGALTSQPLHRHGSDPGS

Structure (SMILES) | hERG current change (%, negative = inhibition) at 10uM
CC(CN1CCOCC1)OC(=O)c1cccc(Br)c1.Cl (centres unmarked) | -5.73%
Cc1cc(SCC(=O)N/N=C/c2ccc(O)c(O)c2)nc2ccccc12 | 7.6%
Cc1cc(=O)[nH]c2c1c(C)nn2C1CCOC(C)(C)C1 (centres unmarked) | 9.96%
Cc1ccccc1NC(=S)N(Cc1cccs1)C1CCCCC1 | 17.3%
CC1(C)CC(=O)C(C(C2=C(O)CC(C)(C)CC2=O)c2ccc(O)c([N+](=O)[O-])c2)=C(O)C1 | -1.33%
Cc1ccc(CNC(=O)CCSCc2ccccc2C)cc1 | 6.59%
CCCN(CC(=O)Nc1ccccc1C)C(=O)c1ccc(S(=O)(=O)N2CCCCCC2)cc1 | -45.2%
CCc1ccc(OCc2nnc(SCC(=O)NCc3ccco3)o2)cc1 | -55.2%
CCCC1(C(=O)OC)NC(c2cccc(F)c2)C2C(=O)N(CC)C(=O)C21 (centres unmarked) | -6.76%
Cc1nc(SCC(=O)N(C)C2(C#N)CCCCC2)c2ccccc2n1 | -14.2%
C[C@@H]1O[C@@H](O[C@@H]2C=C3CCC4C(CC[C@]5(C)[C@@H](c6ccc(=O)oc6)CC[C@]45O)[C@@]3(C)CC2)[C@H](O)[C@H](O)[C@H]1O (some centres unmarked) | 17.4%
COc1ccccc1OCCn1cc(C(=O)c2ccco2)c2ccccc21 | 7.74%
CCOc1ccc(C2C(C#N)=C(N)SC(N)=C2C#N)cc1OC | 0.708%
Cc1cccc2cc(CN(Cc3ccccc3)C(=O)N(C)C)c(=O)[nH]c12 | -11.5%
Cc1c2cnn(CC(=O)NCCCN3CCCCC3C)c(=O)c2c(C)n1Cc1ccccc1 (centres unmarked) | 11.1%
O=C(NC1CCCC1)C(c1ccncc1)N(Cc1ccccc1F)C(=O)c1csnn1 (centres unmarked) | 8.22%
COc1ccc(NC(=O)CCNC(=O)N2CC(=O)Nc3ccccc32)c(OC)c1 | 17.8%
Cc1ccccc1NC(=O)c1sc2nc3c(c(-c4ccco4)c2c1N)CCCC3 | -10.6%
CN(Cc1ccc(F)cc1)S(=O)(=O)c1nnc(NC(=O)c2ccccc2)s1 | 4.03%
COc1ccc(NC(=O)CCNS(=O)(=O)c2ccccc2F)cc1S(N)(=O)=O | 22.1%
N/C(=N\OC(=O)c1cc(Br)ccc1Cl)c1cccnc1 | 13.6%
COc1cc(OC)cc(OC(=O)C2CCN(C3=NS(=O)(=O)c4ccccc43)CC2)c1 | 15.2%
COc1ccc(CNC(=O)c2ccc3ccccc3n2)cc1 | 2.83%
CCCN1CCN(C(=O)c2ccc(CS(=O)c3ccc(F)cc3)o2)CC1 (centres unmarked) | -14.8%
CCCCN(C(=O)CCC(=O)Nc1cc(C)on1)C(C(=O)NC(C)(C)C)c1ccccc1Cl (centres unmarked) | 3.59%
COc1ccc(OC)c(-n2c(C)ccc2-c2ccc(S(C)(=O)=O)cc2)c1 | -10.5%
O=S1(=O)N=C(N(CCO)/N=C/C=C/c2ccccc2)c2ccccc21 | -41.6%

Structure (SMILES) | hERG current change (%, negative = inhibition) at 10uM
COc1cc(NC(=O)c2c3c(nc4ccccc24)CCC3)cc(OC)c1 | 11.3%
CC(C)OP(=O)(OC(C)C)C(O)c1ccc2c(c1)OCO2 (centres unmarked) | 23.2%
CN(CC(=O)c1c(N)n(C)c(=O)n(C)c1=O)c1ccccc1 | 3.37%
CCCCCn1c(=O)[nH]c2cc(C(=O)N3CCN(c4ccccc4F)CC3)ccc2c1=O | 16.8%
COC(=O)c1c(N)sc(C(=O)N2CCOCC2)c1C | 6.03%
CCc1cccc(CC)c1NC(=O)C1CC(=O)N(c2ccc3c(c2)OCCO3)C1 (centres unmarked) | 0.437%
COc1ccccc1/C=C1\SC(=S)N(C(C(=O)O)c2ccccc2)C1=O (centres unmarked) | -7.69%
O=[N+]([O-])c1ccc(S(=O)(=O)Nc2ccc(-c3ccc(N4CCOCC4)nn3)cc2)cc1 | -7.79%
O=C(Cn1cccc1C(=O)c1ccccc1)NCCc1ccccc1 | 16.3%
Cc1c(NC(=O)c2ccc(S(=O)(=O)N3CCOCC3)cc2)cccc1[N+](=O)[O-] | -6.54%
CCn1c(SCC(=O)NC(=O)NCc2ccco2)nnc1-c1cccs1 | -49.5%
CN(C)S(=O)(=O)c1cc(NC(=O)COC(=O)/C=C/c2ccco2)ccc1Cl | -21.7%
O=C(O)/C=C\C(=O)Nc1ccc(Oc2ccccc2)cc1 | 4.72%
Cn1c(=O)c2c(nc(NCc3ccco3)n2C)n(C)c1=O | 13.5%
CCc1cc(Cn2nc(-c3ccccc3C)cc2C(=O)O)on1 | 4.38%
Cc1ccccc1NC(=O)Cc1nc(COC(=O)COc2cccc(C)c2C)cs1 | 22.1%
COc1cccc(CCN2C(=O)C(=O)N([C@@H](CNCc3ccccc3)Cc3ccccc3F)C[C@@H]2C(C)(C)C)c1 | -48.5%
COc1ccc(NC(=S)NC(=O)/C=C/c2ccco2)cc1 | -4.31%
Cc1ccc(N2C(=O)C(c3c(C)[nH]n(-c4ccccc4)c3=O)(C(F)(F)F)C3=C2CC(C)(C)CC3=O)cc1 (centres unmarked) | 23.8%
COc1ccc(NC(=O)C(=O)NCCN2CCN(C(=O)c3cccs3)CC2)cc1 | -45.1%
COc1nnc(-c2ccc(C)cc2)c2ccccc12 | 5.93%
CCc1ccccc1NC(=O)CN1CCN(C(=O)CNC(=O)c2ccccc2F)CC1 | -13.5%
Cc1ccc(CCNC(=O)C2CCCN(S(=O)(=O)c3cccs3)C2)cc1 (centres unmarked) | 2.45%
Cc1c(C(c2ccc(Br)cc2)c2c(C)n(C)n(-c3ccccc3)c2=O)c(=O)n(-c2ccccc2)n1C | 13.9%
O=C(NC1CCCC1)C(=O)N(c1ccccc1F)C(C(=O)NCC1CCCO1)c1cccs1 (centres unmarked) | 5.52%
O=C(NCCCN1CCCCCC1)c1ccc2c(Cl)c3c(nc2c1)CCCC3 | -53%
